# Source: PubChem BioAssay (Tox21)
# Values joined by “and” are separate entries in the source; they are usually repeats but may differ in a detail not shown here. Equal entries are not always repeated. Inconclusive means that the source gave no clear call. Such entries were picked first, then a sample of the others. Where the call is inconclusive, the potency comes from a doubtful curve fit. Some compounds were tested as several samples or in several runs, with calls that do not always agree. Active and inactive are the calls of the source. The call rests on the fitted dose curve; in most records, active means well fitted cell-killing curve with a large enough effect in the repeat runs; inconclusive means weak or mixed curves, or effect the other way; inactive means no such curve, though single readings can be large or run the other way.
# Experiment: qHTS assay for identifying genotoxic compounds that show differential cytotoxicity against isogenic chicken DT40 cell lines with known DNA damage response pathways - Rev3 mutant cell line (AID 743014); further: nearly all actives have a fitted effect of over 55% in size
# Conditions: chicken DT40 Rev3-/- viability, CellTiter-Glo, 40 h; activity, negative = cytotoxicity: at 68.4 µM (top of the series) unless noted
# On the % scale 0 is the no-effect control and ±100 the full control effect; potency means the concentration at half of the fitted maximal effect; tags describe the fitted curve by direction and shape.
SMILES,Potency,"activity, negative = cytotoxicity"
CC(=O)N[C@@H](CCC(=O)O)C(=O)O,"inconclusive: 26.6 µM [rising, partial curve, poor fit]",–
Cc1ccc(C(C)NC(=O)[C@@H](NC(=O)OC(C)C)C(C)C)cc1 (some centres undefined),–,inactive: -1.27%
CCN(O)CC,–,inactive: -2.64%
CCCCNC(=O)NS(=O)(=O)c1ccc(N)cc1,inactive,–
CC1(C)OC(=O)NC1=O,"inconclusive: 11.9 µM [rising, partial curve, poor fit]",–
CCN(CC)CCNC(=O)c1cc(Br)c(N)cc1OC,"inconclusive: 26.6 µM [rising, partial curve, poor fit]",–
Nc1c(CC(=O)O)cccc1C(=O)c1ccc(Br)cc1,"inconclusive: 26.6 µM [rising, partial curve, poor fit]",–
Cc1ccccc1C(=O)N1CC/C(=N\OS(=O)(=O)O)c2ccc(Cl)cc21,–,inactive: -9.16%
Cc1ccc(/C(=C\CN2CCCC2)c2ccccn2)cc1,inactive and active: 57.3 µM,–
CCc1cnc(C(=O)O)c(C(=O)O)c1,–,inconclusive: -35.5% [cytotoxic] [at 95 µM]
CCC(C)OC(=O)N1CCCCC1CCO (centres undefined),–,inactive: -21.6%
O=[N+]([O-])c1ccc(Oc2ccc([N+](=O)[O-])cc2)cc1,–,inactive: 11.9% [at 95 µM]
COC(=O)C(C)(C)C,–,inactive: -0.916% [at 95 µM]
C=C(C)C(=O)OCCC(C)OC(=O)C(=C)C (centres undefined),–,inactive: 8.07%
CC(CCl)OC(C)CCl (centres undefined),–,inactive: 10.5%
O=c1[nH]c2ccc(S(=O)CCN3CCC(Cc4ccc(F)cc4)CC3)cc2o1 (centres undefined),active: 4.33 µM,–
CCN(Cc1cccc(S(=O)(=O)O)c1)c1ccc(C(=C2C=CC(=[N+](CC)Cc3cccc(S(=O)(=O)[O-])c3)C=C2)c2ccccc2)cc1,–,inactive: -7.86%
CC1CC(=O)NN=C1c1ccc(NCC(C)(C)NCC(O)COc2cc(Cl)ccc2C#N)cc1 (centres undefined),active: 0.376 µM,–
O=Cc1ccc(Cl)cc1,–,inactive: -2.06%
CSc1ccc(C=O)cc1,–,inactive: -3.68%

SMILES,Potency,"activity, negative = cytotoxicity"
CCCCOC(=O)CC#N,"inconclusive: 40.4 µM [cytotoxic, partial curve, poor fit]",–
CCCCCC(C)=O,inactive,–
OC[C@H]1O[C@@](CO)(O[C@H]2O[C@H](CO)[C@@H](O)[C@H](O)[C@H]2O)[C@@H](O)[C@@H]1O,"inconclusive: 29.8 µM [rising, partial curve, poor fit]",–
O=C(CCC1CCN(Cc2ccccc2)CC1)c1ccc2c(c1)NCCCC2,active: 2.98 µM,–
Cc1ncc([N+](=O)[O-])n1CC(C)O (centres undefined),"inconclusive: 26.6 µM [rising, partial curve, poor fit]",–
CCC(C)(CCC(C)C)C(=O)O (centres undefined),"inconclusive: 12.2 µM [cytotoxic, full curve]",–
CCCCNC(=O)NS(=O)(=O)c1ccc(C)cc1,"inconclusive: 27.3 µM [cytotoxic, partial curve, poor fit]",–
Cc1ccnc2ccccc12,"inconclusive: 24.3 µM [cytotoxic, partial curve]",–
CSc1ccc(Cl)cc1,inactive,–
NNS(=O)(=O)c1ccc(Oc2ccc(S(=O)(=O)NN)cc2)cc1,active: 27.3 µM,–
CCO[Si](CCCN=C=O)(OCC)OCC,–,inactive: 1.38%
Clc1ccccn1,inactive,–
CCN(CC)CCc1nc(-c2ccccc2)no1,"inconclusive: 10.1 µM [rising, partial curve, poor fit]",–
CN(C)Cc1ccccc1,inactive,–
Nc1ccccc1S(=O)(=O)O,–,inactive: -1.16%
S=C(S)NCCNC(=S)S,–,inactive: 1.16%
C[C@H]1C[C@H]2[C@@H]3CCC4=CC(=O)C=C[C@]4(C)[C@@]3(Cl)[C@@H](O)C[C@]2(C)[C@@]1(O)C(=O)CO,–,inactive: -13.9%
CCCCNc1cc(C(=O)O)cc(S(N)(=O)=O)c1Oc1ccccc1,–,inactive: 5.51% [at 31.4 µM]
COS(C)(=O)=O,"inconclusive: 35.7 µM [rising, partial curve, poor fit]",–
